Laboratory results from the CheMixHub viscosity set.
Several values for one entry are separate records, joined by “and”; a condition that tells them apart may be missing. Equal entries are not always repeated. This continues a long series; more values of the same kind are listed elsewhere.

CCCCn1cc[n+](C)c1.F[B-](F)(F)F
Conditions	viscosity
293.15 K, 101 kPa	127.6 mPa·s and 127.6 mPa·s and 136.9 mPa·s
299.15 K, 101 kPa	101 mPa·s and 103.5 mPa·s and 101.9 mPa·s
301.15 K, 101 kPa	91.07 mPa·s and 93.24 mPa·s and 92 mPa·s
302.15 K, 101 kPa	86.71 mPa·s and 88.7 mPa·s and 87.52 mPa·s
303.15 K, 100 kPa	85.38 mPa·s
304.15 K, 101 kPa	78.91 mPa·s and 80.52 mPa·s and 79.57 mPa·s
305.15 K, 101 kPa	75.15 mPa·s and 76.8 mPa·s and 75.85 mPa·s
307.15 K, 101 kPa	68.48 mPa·s and 69.89 mPa·s and 69.07 mPa·s
308.15 K, 100 kPa	61.5 mPa·s
313.15 K, 100 kPa	53.84 mPa·s
318.15 K, 101 kPa	38.72 mPa·s and 38.72 mPa·s and 37.79 mPa·s
318.15 K, 101.33 kPa	44 mPa·s
323.15 K, 100 kPa	36.27 mPa·s
323.15 K, 101 kPa	31.08 mPa·s and 38.04 mPa·s
323.15 K, 101.33 kPa	31.6 mPa·s
